According to PubChem BioAssay (NCI):
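How tested: cells in 96-well plates exposed to compound for 48 hours at five concentrations. GI50: concentration for 50% inhibition of growth.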 For part of its entries the source gives two or more results. The other results are left out here. There may be further records. For some of these results: The tests behind the records often covered other concentration ranges, which the source does not state; a value can be the end of its range. For some of these results: The values listed for one entry are repeated measurements across runs, samples, wells, individuals or studies. Marks in square brackets tell the records apart. Letters count within one entry.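 TGI marks complete inhibition of growth.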

Legend:
Test in all cases: NCI tumour cell line growth inhibition, 48 h
NCI-H226 lung = test system: NCI-H226 lung
SNB-78 CNS = test system: SNB-78 CNS
OVCAR-8 ovarian = test system: OVCAR-8 ovarian
M14 melanoma = test system: M14 melanoma
XF 498 CNS = test system: XF 498 CNS
SNB-75 CNS = test system: SNB-75 CNS
CCRF-CEM leukemia = test system: CCRF-CEM leukemia
UO-31 renal = test system: UO-31 renal
CAKI-1 renal = test system: CAKI-1 renal
HT29 colon = test system: HT29 colon
COLO 205 colon = test system: COLO 205 colon
K-562 leukemia = test system: K-562 leukemia
HOP-92 NSCLC = test system: HOP-92 NSCLC
DMS 273 small cell lung = test system: DMS 273 small cell lung
KM12 colon = test system: KM12 colon
OVCAR-3 ovarian = test system: OVCAR-3 ovarian
SK-MEL-5 melanoma = test system: SK-MEL-5 melanoma
HOP-18 NSCLC = test system: HOP-18 NSCLC
HL-60(TB) leukemia = test system: HL-60(TB) leukemia
SK-OV-3 ovarian = test system: SK-OV-3 ovarian
LOX IMVI melanoma = test system: LOX IMVI melanoma
SN12C renal = test system: SN12C renal
OVCAR-4 ovarian = test system: OVCAR-4 ovarian
UACC-62 melanoma = test system: UACC-62 melanoma
DMS 114 small cell lung = test system: DMS 114 small cell lung
HCT-116 colon = test system: HCT-116 colon
SW-620 colon = test system: SW-620 colon
UACC-257 melanoma = test system: UACC-257 melanoma
NCI-H522 lung = test system: NCI-H522 lung
SF-539 CNS = test system: SF-539 CNS
SF-268 CNS = test system: SF-268 CNS
SF-295 CNS = test system: SF-295 CNS
MDA-MB-231 breast = test system: MDA-MB-231 breast
BT-549 breast = test system: BT-549 breast
NCI-H23 lung = test system: NCI-H23 lung
786-0 renal = test system: 786-0 renal
IGROV1 ovarian = test system: IGROV1 ovarian
HOP-62 NSCLC = test system: HOP-62 NSCLC
MOLT-4 leukemia = test system: MOLT-4 leukemia

COc1cc(/C=C\c2ccc(Br)cc2)cc(OC)c1OC
TGI (NCI-H226 lung): 188 nM and > 100 µM | TGI (SNB-78 CNS): 0.795 nM and > 100 µM | TGI (OVCAR-8 ovarian): 105 nM and > 100 µM | TGI (M14 melanoma): 2.57 nM and 12.1 µM | TGI (XF 498 CNS): 62.3 nM and 46.1 µM | TGI (SNB-75 CNS): 3 nM and 96.7 µM

CCN(CC)CCOC(=O)Cc1cccc2c(=O)cc(-c3ccccc3)oc12
TGI (CCRF-CEM leukemia): 61.2 µM and > 625 µM | TGI (UO-31 renal): 13.7 µM and > 625 µM | TGI (CAKI-1 renal): 43.5 µM and > 625 µM | TGI (HT29 colon): 62.5 µM and > 625 µM | TGI (COLO 205 colon): 62.5 µM and > 625 µM | TGI (K-562 leukemia): 62.5 µM and > 625 µM

CC1[C@@H]2CC=C3[C@H]4CCC5Cc6nc7c(nc6C[C@@]5(C)C4(O)CC(=O)[C@]32CO[C@]12OC(C)(C)CC2O)CC1CC[C@@H]2C3=C[C@H]4O[C@@]5(O[C@@](C)(CO)C[C@@H]5O)C(C)[C@@]4(O)[C@]3(C)[C@@H](O)CC2[C@]1(C)C7 (stereo partly specified)
GI50 (NCI-H226 lung): 0.142 nM and > 3.6 µM | TGI (NCI-H226 lung): 50.3 nM and > 3.6 µM | GI50 (SNB-78 CNS): 0.251 nM and 3.15 nM | TGI (SNB-78 CNS): 7.75 nM and > 3.6 µM | TGI (HOP-92 NSCLC): 8.49 nM and 194 nM | TGI (DMS 273 small cell lung): 0.119 nM and 44.1 nM | GI50 (KM12 colon): 0.372 nM and > 3.6 µM | TGI (KM12 colon): 36.5 nM and > 3.6 µM | GI50 (OVCAR-3 ovarian): 343 nM and > 3.6 µM | TGI (SK-MEL-5 melanoma): 20.5 nM and > 3.6 µM | GI50 (HOP-18 NSCLC): 14.4 nM and > 3.6 µM | TGI (HL-60(TB) leukemia): 16.1 nM and 196 nM | GI50 (UO-31 renal): 1.18 nM and 37.9 nM | TGI (UO-31 renal): 4.78 nM and 217 nM | TGI (SK-OV-3 ovarian): 3.2 nM and 208 nM | TGI (LOX IMVI melanoma): 55.3 nM and 1.35 µM | GI50 (SN12C renal): 105 nM and > 3.6 µM | GI50 (OVCAR-4 ovarian): 16.8 nM and 882 nM | TGI (UACC-62 melanoma): 0.383 nM and 4.19 nM | TGI (DMS 114 small cell lung): 8.18 nM and 386 nM | GI50 (HCT-116 colon): 0.294 nM and 3.95 nM | TGI (SW-620 colon): 4.85 nM and 62.4 nM | GI50 (UACC-257 melanoma): 0.917 nM and 10.5 nM | TGI (UACC-257 melanoma): 3.93 nM and 65 nM | GI50 (NCI-H522 lung): 0.786 nM and 11.3 nM | TGI (NCI-H522 lung): 5.05 nM and 200 nM | GI50 (COLO 205 colon): 0.623 nM and 11.2 nM | TGI (SNB-75 CNS): 0.507 nM and 207 nM | TGI (SF-539 CNS): 0.252 nM and 6.8 nM

CC(C)C[C@H](NC(=O)[C@H](Cc1cccc2ccccc12)NS(=O)(=O)c1cccc2cccnc12)B(O)O
GI50 (SF-268 CNS): 1.89 nM and 48.8 nM | TGI (SF-268 CNS): 29.9 nM and > 100 µM | TGI (HL-60(TB) leukemia): 2.46 nM and > 100 µM | GI50 (M14 melanoma): 2.66 nM and 28.7 nM | TGI (M14 melanoma): 27.7 nM and > 100 µM | TGI (SF-295 CNS): 924 nM and > 100 µM | GI50 (SNB-75 CNS): 1.37 nM and 549 nM | TGI (SNB-75 CNS): 8.24 nM and > 100 µM | TGI (SF-539 CNS): 0.376 nM and 463 nM

CC(C)C[C@H](NC(=O)[C@@H](NC(=O)c1cccc(-c2ccccc2)n1)[C@@H](C)O)B(O)O
TGI (MDA-MB-231 breast): 53.4 nM [1 test] and 551 nM [mean of 3 tests] | TGI (BT-549 breast): 117 nM [1 test] and < 11.4 nM [mean of 3 tests] | TGI (NCI-H23 lung): 753 nM [1 test] and 46.9 nM [mean of 3 tests] | TGI (CAKI-1 renal): 163 nM [1 test] and 6.26 µM [mean of 2 tests] | TGI (786-0 renal): 96.4 nM [1 test] and 2 µM [mean of 3 tests]

Cn1cnc2c(F)c(Nc3ccc(Br)cc3F)c(C(=O)NOCCO)cc21
GI50 (IGROV1 ovarian): 112 nM [sample A, mean of 2 tests] and 3.91 µM [sample B, mean of 2 tests] | GI50 (HOP-62 NSCLC): 28.3 nM [sample A, mean of 2 tests] and 983 nM [sample B, 1 test] | TGI (COLO 205 colon): 2.1 µM [sample A, mean of 2 tests] and > 39.9 µM [sample B, mean of 2 tests] | GI50 (SNB-75 CNS): 135 nM [sample A, 1 test] and > 62.2 µM [sample B, mean of 2 tests] | TGI (SNB-75 CNS): 1.2 µM [sample A, 1 test] and > 100 µM [sample B, mean of 2 tests]

CC(=O)NC1(C(=O)N[C@@H](Cc2ccccc2)C(=O)NC2CCCCC2)Cc2ccc3ccccc3c2-c2c(ccc3ccccc23)C1
TGI (MOLT-4 leukemia): 6.66 µM [sample A, 1 test] and 70.5 µM [sample B, 1 test]
